Results reported in PubChem BioAssay (Tox21).
Inconclusive means that the source gave no clear call. Such entries were picked first, then a sample of the others. For some assays here: Potencies of inconclusive entries are doubtful fits and often do not repeat. Activity calls are given as the source filed them. Unless noted, the call rests on the fitted dose curve; in most records, active means well fitted curve in the direction sought with a large enough effect in the repeat runs; inconclusive means weak or mixed curves; inactive means no such curve, though single readings can be large; an effect the other way counts as inactive or inconclusive.

Tests used:
[1] = target: Estrogen receptor beta (Homo sapiens) (UniProt Q92731); assay: qHTS assay to identify small molecule antagonists of the estrogen receptor beta (ER-beta) signaling pathway (AID 1259378; active means well fitted inhibition curve with a large enough effect in the signal ratio in the repeat runs, not every such curve was filed as active; inconclusive means weak or mixed curves, or effect the other way; inactive means no such curve, though single readings can be large or run the other way; the % refers to the signal ratio; on activity, negative = inhibition: on the % scale 0 is the no-effect control and ±100 the full control effect); conditions: ER-beta-UAS-bla HEK293T, beta-lactamase FRET ratio, 16 h; activity, negative = inhibition: at 92.4 µM (top of the series) unless noted
Sequence of UniProt Q92731 (Q92731 whole entry, looked up): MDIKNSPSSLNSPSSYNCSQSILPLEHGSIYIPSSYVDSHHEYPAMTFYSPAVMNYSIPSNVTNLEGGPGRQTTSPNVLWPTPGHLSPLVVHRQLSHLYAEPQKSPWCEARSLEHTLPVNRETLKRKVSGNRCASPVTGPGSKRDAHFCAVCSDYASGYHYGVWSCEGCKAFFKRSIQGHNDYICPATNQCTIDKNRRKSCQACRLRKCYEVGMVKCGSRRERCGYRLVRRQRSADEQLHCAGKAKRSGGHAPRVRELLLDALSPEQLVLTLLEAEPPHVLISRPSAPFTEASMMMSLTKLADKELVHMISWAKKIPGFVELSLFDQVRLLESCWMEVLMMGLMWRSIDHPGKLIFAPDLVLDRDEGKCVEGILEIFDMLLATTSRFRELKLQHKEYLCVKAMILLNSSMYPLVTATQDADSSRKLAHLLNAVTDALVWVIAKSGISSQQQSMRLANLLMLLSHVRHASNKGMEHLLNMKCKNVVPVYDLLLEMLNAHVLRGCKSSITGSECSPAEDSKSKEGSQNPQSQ
Summary of the method: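 ER-beta-UAS-bla HEK293T (GripTite) cells in 2% charcoal-stripped FBS medium were preincubated 6 hr at 37C, dosed with compound, then stimulated with 1 nM E2 (final) for 16 hr; beta-lactamase reporter read by B/G FRET fluorescence after 2 hr substrate loading.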

[2] = qHTS assay to identify small molecule agonists of the estrogen receptor beta (ER-beta) signaling pathway - cell viability counter screen (AID 1259380); further: nearly all actives have a fitted effect of over 30% in size
Summary of the method: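 Cell viability counter screen: CellTiter-Glo luminescence (30 min, room temperature) measured in the same wells as the beta-lactamase readout, after 16 hr compound exposure at 37C of ER-beta-bla HEK293T cells in 2% charcoal-stripped FBS medium.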

[3] = target: Thyrotropin receptor (Homo sapiens) (UniProt P16473); assay: qHTS assay to identify small molecule antagonists of the thyroid stimulating hormone receptor (TSHR) signaling pathway (AID 1259385; calls by dose curve; further: nearly all actives have a fitted effect of over 20% in size); conditions: TSHR-HEK293 cAMP HTRF, TSH-stimulated antagonist mode; activity change, negative = inhibition: at 92.4 µM (top of the series) unless noted
Sequence of UniProt P16473 (P16473 whole entry, looked up): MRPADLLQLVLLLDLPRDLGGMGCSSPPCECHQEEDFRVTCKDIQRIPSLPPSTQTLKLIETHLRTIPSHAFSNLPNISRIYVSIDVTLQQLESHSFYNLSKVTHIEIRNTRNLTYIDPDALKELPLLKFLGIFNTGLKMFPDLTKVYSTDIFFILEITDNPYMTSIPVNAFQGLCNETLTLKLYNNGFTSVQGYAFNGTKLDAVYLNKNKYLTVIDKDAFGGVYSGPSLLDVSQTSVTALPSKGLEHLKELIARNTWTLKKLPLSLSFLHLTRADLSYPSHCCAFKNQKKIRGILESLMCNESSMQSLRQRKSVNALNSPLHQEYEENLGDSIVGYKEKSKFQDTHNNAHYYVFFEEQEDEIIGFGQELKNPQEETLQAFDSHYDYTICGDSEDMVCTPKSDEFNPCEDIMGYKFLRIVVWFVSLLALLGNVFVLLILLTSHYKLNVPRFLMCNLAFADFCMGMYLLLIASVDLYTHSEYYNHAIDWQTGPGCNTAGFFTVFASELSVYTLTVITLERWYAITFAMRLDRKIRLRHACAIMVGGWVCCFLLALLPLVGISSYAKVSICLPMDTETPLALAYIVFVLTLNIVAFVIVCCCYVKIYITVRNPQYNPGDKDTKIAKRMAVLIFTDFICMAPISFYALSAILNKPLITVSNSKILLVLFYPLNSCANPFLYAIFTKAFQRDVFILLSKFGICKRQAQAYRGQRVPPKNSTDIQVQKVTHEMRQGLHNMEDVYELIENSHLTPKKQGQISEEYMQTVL
Summary of the method: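 TSHR-HEK293 cells were plated and held 18 h at 37C/5% CO2, then given compound plus Ro20-1724 and stimulated with TSH at 1.5 ng/mL final. After 30 min at room temperature, cAMP was detected with cAMP-d2/anti-cAMP-cryptate (1 h) by fluorescence.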

[4] = target: Progesterone receptor (Homo sapiens) (UniProt P06401); assay: qHTS assay to identify small molecule antagonists of the progesterone receptor (PR) signaling pathway (AID 1346795; active means well fitted inhibition curve with a large enough effect in the signal ratio in the repeat runs, not every such curve was filed as active; inconclusive means weak or mixed curves; the % refers to the signal ratio; on activity change, negative = inhibition: on the % scale 0 is the no-effect control and ±100 the full control effect); conditions: PR-UAS-bla HEK293T, beta-lactamase FRET ratio, 16 h; activity change, negative = inhibition: at 92.4 µM (top of the series) unless noted
Sequence of UniProt P06401 (P06401 whole entry, looked up): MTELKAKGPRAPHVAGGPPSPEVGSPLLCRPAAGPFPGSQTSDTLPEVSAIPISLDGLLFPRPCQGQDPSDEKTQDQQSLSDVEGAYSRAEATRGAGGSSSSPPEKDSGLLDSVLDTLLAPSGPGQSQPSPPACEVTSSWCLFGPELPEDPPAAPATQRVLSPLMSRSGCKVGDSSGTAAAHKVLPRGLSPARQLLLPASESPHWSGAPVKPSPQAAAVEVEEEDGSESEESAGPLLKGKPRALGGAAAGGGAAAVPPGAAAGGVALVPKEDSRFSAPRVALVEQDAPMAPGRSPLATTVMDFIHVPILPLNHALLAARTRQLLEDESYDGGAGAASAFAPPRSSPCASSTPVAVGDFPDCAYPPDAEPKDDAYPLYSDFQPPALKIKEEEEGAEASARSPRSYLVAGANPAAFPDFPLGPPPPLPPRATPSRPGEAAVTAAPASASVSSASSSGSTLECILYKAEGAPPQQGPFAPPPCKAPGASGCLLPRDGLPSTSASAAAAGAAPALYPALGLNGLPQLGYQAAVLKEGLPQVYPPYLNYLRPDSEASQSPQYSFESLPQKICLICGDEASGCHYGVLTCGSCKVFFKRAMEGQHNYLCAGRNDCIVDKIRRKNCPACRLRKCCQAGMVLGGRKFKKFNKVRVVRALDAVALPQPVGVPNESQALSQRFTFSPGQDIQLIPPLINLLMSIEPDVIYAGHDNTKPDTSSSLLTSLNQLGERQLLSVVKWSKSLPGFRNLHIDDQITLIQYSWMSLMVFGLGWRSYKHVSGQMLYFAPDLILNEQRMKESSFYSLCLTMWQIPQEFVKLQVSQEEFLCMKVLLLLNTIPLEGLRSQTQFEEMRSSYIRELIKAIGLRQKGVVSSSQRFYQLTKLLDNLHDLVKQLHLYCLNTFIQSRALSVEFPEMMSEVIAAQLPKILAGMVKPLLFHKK
Summary of the method: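 Screening used a GripTite HEK293T line with PR-responsive UAS-beta-lactamase. Cells were challenged with compound in the presence of 1 nM R5020 final for 16 hr at 37C; B/G FRET substrate, 2 hr room temperature, fluorescence.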

[5] = qHTS assay to identify small molecule antagonists of the progesterone receptor (PR) signaling pathway - cell viability counter screen (AID 1346798); further: nearly all actives have a fitted effect of over 50% in size
Summary of the method: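 Measures cytotoxicity in parallel with the PR antagonist reporter read: HEK293T PR-UAS-bla cells get compound and R5020 for 16 hr, and remaining viable cells are quantified by CellTiter-Glo luminescence.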

[6] = qHTS assay to identify small molecule agonists of the progesterone receptor (PR) signaling pathway - cell viability counter screen (AID 1346799; calls by dose curve; further: nearly all actives have a fitted effect of over 45% in size)
Summary of the method: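 Using the same plates as the PR reporter screen, HEK293T PR-UAS-bla cells received compounds for 16 hr at 37C and were then lysed with CellTiter-Glo; luminescence was read 30 min later at room temperature.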

[7] = qHTS assay to identify small molecule agonists of the TGF-beta/Smad signaling pathway (AID 1346859; active means well fitted activation curve with a large enough effect in the signal ratio in the repeat runs, not every such curve was filed as active; inconclusive means weak or mixed curves; the % refers to the signal ratio); conditions: SBE-bla HEK293T, TGF-beta/Smad beta-lactamase reporter, 5 h; activation: at 76.8 µM (top of the series)
Summary of the method: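 Beta-lactamase reporter activity downstream of Smad binding elements was measured in stably transfected HEK 293T cells; compounds were incubated for 5 hr, substrate for 2 hr at room temperature.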

[8] = qHTS assay to identify small molecule agonists of the androgen receptor (AR) signaling pathway in the presence of an antagonist - cell viability counter screen (AID 1259379); further: nearly all actives have a fitted effect of over 25% in size
Summary of the method: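 Cytotoxicity counter-screen run in the same wells as the nilutamide-challenged (3.0 µM final) AR agonist assay in MDA-kb2 cells. Compounds tested at 15 concentrations for 16 h, 37 °C without CO2; CellTiter-Fluor fluorescence read.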

[9] = qHTS assay to identify small molecule agonists of the estrogen receptor alpha (ER-alpha) signaling pathway in the presence of an antagonist - cell viability counter screen (AID 1259386); further: nearly all actives have a fitted effect of over 30% in size
Summary of the method: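 Compounds tested at 15 concentrations for 22 h at 37C alongside 10.0nM (final) ICI-182,780 antagonist, in VM7Luc4E2 cells grown in phenol red-free, charcoal-stripped medium. Viability read by CellTiter-Fluor fluorescence after 1 h reagent incubation.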

[10] = qHTS assay to identify small molecule antagonists of the TGF-beta/Smad signaling pathway - cell viability counter screen (AID 1346824); further: nearly all actives have a fitted effect of over 50% in size
Summary of the method: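 SBE-bla HEK 293T cells were plated overnight at 37 C, then given compounds in DMSO plus TGF-beta1 (added as 0.25 ng/mL solution) for 5 hr. After the bla read, CellTiter-Glo was added to the same wells and luminescence read after 30 min at room temperature.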

[11] = qHTS assay to identify small molecule agonists or antagonists of the thyroid stimulating hormone receptor (TSHR) signaling pathway - wild type cell line counter screen (AID 1259384; calls by dose curve); conditions: HEK293 wild type, cAMP HTRF counter-screen; cAMP activity change: at 92.4 µM (top of the series), stronger effect = higher value unless noted
Summary of the method: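 Wild-type HEK293 cells were plated 18 h at 37 C/5% CO2, pin-dosed with compound plus Ro20-1724 medium, held 30 min at room temperature, then given cAMP-d2 and anti-cAMP-cryptate; fluorescence was read after 1 h. Fifteen concentrations, triplicate.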

[12] = target: Progesterone receptor (Homo sapiens) (UniProt P06401); assay: qHTS assay to identify small molecule agonists of the progesterone receptor (PR) signaling pathway (AID 1346784; calls by dose curve; further: nearly all actives have a fitted effect of over 30% in size; on activation: on the % scale 0 is the no-effect control and ±100 the full control effect); conditions: PR-UAS-bla HEK293T, beta-lactamase FRET ratio, 16 h; activation: at 92.4 µM (top of the series) unless noted
Summary of the method: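 Seed PR-UAS-bla HEK 293T cells (2% charcoal-stripped FBS), incubate 6 hr at 37C; add compounds in DMSO, 16 hr at 37C; add LiveBLAzer B/G substrate, 2 hr RT; read fluorescence intensity.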

[13] = target: Thyrotropin-releasing hormone receptor (Homo sapiens) (UniProt P34981); assay: qHTS assay to identify small molecule antagonists of the thyrotropin-releasing hormone receptor (TRHR) signaling pathway (AID 1346877; active means well fitted inhibition curve with a large enough effect in the repeat runs, not every such curve was filed as active; inconclusive means weak or mixed curves)
Sequence of UniProt P34981 (P34981 whole entry, looked up): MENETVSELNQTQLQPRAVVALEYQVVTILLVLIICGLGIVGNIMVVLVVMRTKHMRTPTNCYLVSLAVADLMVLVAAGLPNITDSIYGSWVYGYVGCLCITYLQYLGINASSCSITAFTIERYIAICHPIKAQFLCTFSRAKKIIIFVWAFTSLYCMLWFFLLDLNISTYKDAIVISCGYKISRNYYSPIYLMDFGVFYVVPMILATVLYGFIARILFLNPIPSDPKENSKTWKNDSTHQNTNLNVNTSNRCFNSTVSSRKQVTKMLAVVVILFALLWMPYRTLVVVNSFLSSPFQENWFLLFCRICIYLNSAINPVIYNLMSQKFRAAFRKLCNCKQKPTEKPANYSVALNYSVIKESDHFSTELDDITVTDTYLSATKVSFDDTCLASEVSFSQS
Summary of the method: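 Antagonist mode: after a 5 min room-temperature compound exposure, cells were stimulated with 1 nM (final) TRH. Dye-loaded TRHR-HEK293 cells were used, and calcium-dependent fluorescence was followed for 3 min, with 15-point titrations run in triplicate.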
Potency means the concentration at half of the fitted maximal effect; tags describe the fitted curve by direction and shape or compound fluorescence and quenching.

**Q.** With CCCNCC(O)COc1ccccc1C(=O)CCc1ccccc1 (stereo not drawn) as the compound, how does the Potency [1] read?
**A.** inconclusive: 26.6 µM

**Q.** And the Potency [2]?
**A.** active: 26.6 µM

**Q.** What about the Potency [3] of the same compound?
**A.** inconclusive: 29.8 µM

**Q.** And the activity change, negative = inhibition [4]?
**A.** inconclusive: -33.3% [at 42.5 µM]

**Q.** And the Potency [5]?
**A.** inactive

**Q.** And the Potency [6]?
**A.** inconclusive: 13.3 µM [cytotoxic, partial curve]

**Q.** Which activity, negative = inhibition [1] does the source give for CC1=C(C)C(=O)C(C(CCCCCC(=O)O)c2ccccc2)=C(C)C1=O (stereo not drawn) here?
**A.** inconclusive: -36.7% [at 42.5 µM]

**Q.** And the Potency [2]?
**A.** inconclusive: 33.5 µM [cytotoxic, single point]

**Q.** And the Potency [7]?
**A.** inconclusive: 26.8 µM [rising, partial curve, poor fit]

**Q.** With Nc1cc([N+](=O)[O-])cc(Cl)c1O as the compound, how does the activity, negative = inhibition [1] read?
**A.** inconclusive: 20.7%

**Q.** And the Potency [8]?
**A.** inconclusive: 61.1 µM [cytotoxic, partial curve]

**Q.** What about the Potency [9] of the same compound?
**A.** inconclusive: 48.6 µM [cytotoxic, partial curve]

**Q.** And the Potency [6]?
**A.** inactive

**Q.** What does the source list for CNC(=O)Nc1ccc(Cl)c(Cl)c1?
**A.** Potency [1]: inactive; Potency [4]: inconclusive: 61.1 µM [falling, partial curve]

**Q.** Which Potency [1] does the source give for CC1=CC(C)C(C=O)CC1 (stereo not drawn) here?
**A.** inactive

**Q.** And the Potency [9]?
**A.** inactive

**Q.** What about the Potency [4] of the same compound?
**A.** inactive

**Q.** What about the Potency [10] of the same compound?
**A.** active: 4.9 µM

**Q.** For O=C1OC2(c3ccccc31)c1ccc(O)c(Br)c1Oc1c2ccc(O)c1Br, which Potency [1] is on record?
**A.** inconclusive: 61.1 µM [rising, partial curve]

**Q.** What about the Potency [11] of the same compound?
**A.** inconclusive: 30.6 µM [falling, partial curve]

**Q.** What about the Potency [3] of the same compound?
**A.** active: 48.6 µM

**Q.** What about the Potency [9] of the same compound?
**A.** active: 30.6 µM

**Q.** What about the Potency [12] of the same compound?
**A.** inconclusive: 61.1 µM [rising, partial curve]

**Q.** What about the Potency [4] of the same compound?
**A.** inconclusive: 54.5 µM [rising, partial curve]

**Q.** And the Potency [6]?
**A.** inconclusive: 61.1 µM [rising, partial curve, poor fit]

**Q.** And the Potency [7]?
**A.** inconclusive: 49 µM [rising, partial curve]

**Q.** What about the Potency [13] of the same compound?
**A.** active: 1.2 µM

**Q.** Which results are given for CC(C)(O)C(=O)O?
**A.** Potency [1]: inactive; Potency [12]: inactive

**Q.** With COc1ccc(N=Nc2cc(C)c(N=Nc3ccc(S(=O)(=O)O)cc3)cc2OC)cc1 as the compound, how does the activity, negative = inhibition [1] read?
**A.** inconclusive: 17.2%

**Q.** And the Potency [3]?
**A.** inconclusive: 77 µM [falling, partial curve, poor fit]

**Q.** What about the Potency [9] of the same compound?
**A.** active: 27.3 µM

**Q.** What about the activity change, negative = inhibition [4] of the same compound?
**A.** inconclusive: -33.5%

**Q.** For FC(F)(F)c1ccc(Cl)c(Cl)c1, which activity, negative = inhibition [1] is on record?
**A.** inconclusive: 28.6%

**Q.** What about the Potency [9] of the same compound?
**A.** inconclusive: 3.06 µM [cytotoxic, single point]

**Q.** What about the Potency [4] of the same compound?
**A.** inconclusive: 8.63 µM [rising, partial curve, poor fit]

**Q.** And the Potency [5]?
**A.** inconclusive: 77 µM [cytotoxic, single point]
